# In the supplement of paper PMC8728848:
# The other results are listed elsewhere or left out.
# B1: DEC205 (Homo sapiens), O60449 (protein)
# chain: MRTGWATPRRPAGLLMLLFWFFDLAEPSGRAANDPFTIVHGNTGKCIKPVYGWIVADDCDETEDKLWKWVSQHRLFHLHSQKCLGLDITKSVNELRMFSCDSSAMLWWKCEHHSLYGAARYRLALKDGHGTAISNASDVWKKGGSEESLCDQPYHEIYTRDGNSYGRPCEFPFLIDGTWHHDCILDEDHSGPWCATTLNYEYDRKWGICLKPENGCEDNWEKNEQFGSCYQFNTQTALSWKEAYVSCQNQGADLLSINSAAELTYLKEKEGIAKIFWIGLNQLYSARGWEWSDHKPLNFLNWDPDRPSAPTIGGSSCARMDAESGLWQSFSCEAQLPYVCRKPLNNTVELTDVWTYSDTRCDAGWLPNNGFCYLLVNESNSWDKAHAKCKAFSSDLISIHSLADVEVVVTKLHNEDIKEEVWIGLKNINIPTLFQWSDGTEVTLTYWDENEPNVPYNKTPNCVSYLGELGQWKVQSCEEKLKYVCKRKGEKLNDASSDKMCPPDEGWKRHGETCYKIYEDEVPFGTNCNLTITSRFEQEYLNDLMKKYDKSLRKYFWTGLRDVDSCGEYNWATVGGRRRAVTFSNWNFLEPASPGGCVAMSTGKSVGKWEVKDCRSFKALSICKKMSGPLGPEEASPKPDDPCPEGWQSFPASLSCYKVFHAERIVRKRNWEEAERFCQALGAHLSSFSHVDEIKEFLHFLTDQFSGQHWLWIGLNKRSPDLQGSWQWSDRTPVSTIIMPNEFQQDYDIRDCAAVKVFHRPWRRGWHFYDDREFIYLRPFACDTKLEWVCQIPKGRTPKTPDWYNPDRAGIHGPPLIIEGSEYWFVADLHLNYEEAVLYCASNHSFLATITSFVGLKAIKNKIANISGDGQKWWIRISEWPIDDHFTYSRYPWHRFPVTFGEECLYMSAKTWLIDLGKPTDCSTKLPFICEKYNVSSLEKYSPDSAAKVQCSEQWIPFQNKCFLKIKPVSLTFSQASDTCHSYGGTLPSVLSQIEQDFITSLLPDMEATLWIGLRWTAYEKINKWTDNRELTYSNFHPLLVSGRLRIPENFFEEESRYHCALILNLQKSPFTGTWNFTSCSERHFVSLCQKYSEVKSRQTLQNASETVKYLNNLYKIIPKTLTWHSAKRECLKSNMQLVSITDPYQQAFLSVQALLHNSSLWIGLFSQDDELNFGWSDGKRLHFSRWAETNGQLEDCVVLDTDGFWKTVDCNDNQPGAICYYSGNETEKEVKPVDSVKCPSPVLNTPWIPFQNCCYNFIITKNRHMATTQDEVHTKCQKLNPKSHILSIRDEKENNFVLEQLLYFNYMASWVMLGITYRNNSLMWFDKTPLSYTHWRAGRPTIKNEKFLAGLSTDGFWDIQTFKVIEEAVYFHQHSILACKIEMVDYKEEHNTTLPQFMPYEDGIYSVIQKKVTWYEALNMCSQSGGHLASVHNQNGQLFLEDIVKRDGFPLWVGLSSHDGSESSFEWSDGSTFDYIPWKGQTSPGNCVLLDPKGTWKHEKCNSVKDGAICYKPTKSKKLSRLTYSSRCPAAKENGSRWIQYKGHCYKSDQALHSFSEAKKLCSKHDHSATIVSIKDEDENKFVSRLMRENNNITMRVWLGLSQHSVDQSWSWLDGSEVTFVKWENKSKSGVGRCSMLIASNETWKKVECEHGFGRVVCKVPLGPDYTAIAIIVATLSILVLMGGLIWFLFQRHRLHLAGFSSVRYAQGVNEDEIMLPSFHD
# Columns and labels:
# Test in all cases: glycan array binding signal (z-score within array); higher = stronger binding
# Settings in all cases: glycan notation: IUPAC condensed, linker removed
# [1] = target: Gal(b1-3)[Fuc(a1-4)]GlcNAc(b1-3)Gal(b1-4)[Fuc(a1-3)]GlcNAc
# Procedure, shortened: (§1)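 Glycan array binding is given as a within-array Z-score, which can be read as non-binding when negative. The arrays, 3228 of them, came from the Consortium for Functional Glycomics database and were retained only where the protein sequence was available. Z-scores were averaged across arrays of the same protein sequence at different concentrations or buffers and across linkers.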
# [2] = target: Gal(b1-3)[GlcNAc(b1-6)]GalNAc
# Procedure, shortened: as §1
# [3] = target: Gal(b1-3)[Neu5Ac(a2-6)]GalNAc
# Procedure, shortened: as §1
# [4] = target: Gal(b1-3)[Neu5Ac(a2-6)]GlcNAc(b1-6)Gal(b1-4)Glc
# Procedure, shortened: as §1
# [5] = target: Gal(b1-3)[Neu5Ac(b2-6)]GalNAc
# Procedure, shortened: as §1
# [6] = target: Gal(b1-4)GalNAc(a1-3)[Fuc(a1-2)]Gal(b1-4)GlcNAc
# Procedure, shortened: as §1
# [7] = target: Gal(b1-4)GalNAc(b1-3)[Fuc(a1-2)]Gal(b1-4)GlcNAc
# Procedure, shortened: as §1
# [8] = target: Gal(b1-4)Glc
# Procedure, shortened: as §1
# [9] = target: Gal(b1-4)Glc6S
# Procedure, shortened: as §1
# [10] = target: Gal(b1-4)GlcNAc
# Procedure, shortened: as §1
# [11] = target: Gal(b1-4)GlcNAc(b1-2)Man(a1-3)[Gal(b1-4)GlcNAc(b1-2)Man(a1-6)]Man(b1-4)GlcNAc(b1-4)GlcNAc
# Procedure, shortened: as §1
# [12] = target: Gal(b1-4)GlcNAc(b1-3)Gal(b1-4)Glc
# Procedure, shortened: as §1
# [13] = target: Gal(b1-4)GlcNAc(b1-3)Gal(b1-4)GlcNAc
# Procedure, shortened: as §1
# [14] = target: Gal(b1-4)GlcNAc(b1-3)Gal(b1-4)GlcNAc(b1-3)Gal(b1-4)GlcNAc
# Procedure, shortened: as §1
# [15] = target: Gal(b1-4)GlcNAc(b1-3)Gal(b1-4)[Fuc(a1-3)]GlcNAc(b1-3)Gal(b1-4)[Fuc(a1-3)]GlcNAc
# Procedure, shortened: as §1
# [16] = target: Gal(b1-4)GlcNAc(b1-3)GalNAc
# Procedure, shortened: as §1
# [17] = target: Gal(b1-4)GlcNAc(b1-3)[Gal(b1-4)GlcNAc(b1-6)]GalNAc
# Procedure, shortened: as §1
# [18] = target: Gal(b1-4)GlcNAc(b1-6)Gal(b1-4)GlcNAc(b1-6)GalNAc
# Procedure, shortened: as §1
# [19] = target: Gal(b1-4)GlcNAc(b1-6)GalNAc
# Procedure, shortened: as §1
# [20] = target: Gal(b1-4)GlcNAc(b1-6)[Gal(b1-3)]GalNAc
# Procedure, shortened: as §1
# [21] = target: Gal3S(b1-3)GalNAc
# Procedure, shortened: as §1
# [22] = target: Gal3S(b1-3)GlcNAc
# Procedure, shortened: as §1
# [23] = target: Gal3S(b1-3)[Fuc(a1-4)]GlcNAc
# Procedure, shortened: as §1
# [24] = target: Gal3S(b1-4)Glc
# Procedure, shortened: as §1
# [25] = target: Gal3S(b1-4)Glc6S
# Procedure, shortened: as §1
# [26] = target: Gal3S(b1-4)GlcNAc
# Procedure, shortened: as §1
# [27] = target: Gal3S(b1-4)GlcNAc6S
# Procedure, shortened: as §1
# [28] = target: Gal3S6S(b1-4)GlcNAc
# Procedure, shortened: as §1
# [29] = target: Gal3S6S(b1-4)GlcNAc6S
# Procedure, shortened: as §1
# [30] = target: Gal4S(b1-4)GlcNAc
# Procedure, shortened: as §1
# [31] = target: Gal4S6S(b1-4)GlcNAc
# Procedure, shortened: as §1
# [32] = target: Gal6S(b1-4)Glc
# Procedure, shortened: as §1
# [33] = target: Gal6S(b1-4)Glc6S
# Procedure, shortened: as §1
# [34] = target: Gal6S(b1-4)GlcNAc
# Procedure, shortened: as §1
# [35] = target: GalNAc(a1-3)Gal
# Procedure, shortened: as §1
# [36] = target: GalNAc(a1-3)GalNAc
# Procedure, shortened: as §1
# [37] = target: GalNAc(b1-3)Gal(a1-4)Gal(b1-4)GlcNAc
# Procedure, shortened: as §1
# [38] = target: GalNAc(b1-3)GalNAc
# Procedure, shortened: as §1
# [39] = target: GalNAc(b1-4)GlcNAc
# Procedure, shortened: as §1
# [40] = target: Glc(a1-4)Glc
# Procedure, shortened: as §1
# [41] = target: Glc(a1-6)Glc(a1-6)Glc
# Procedure, shortened: as §1
# [42] = target: Glc(b1-4)Glc
# Procedure, shortened: as §1
# [43] = target: Glc(b1-6)Glc
# Procedure, shortened: as §1
# [44] = target: GlcA(b1-3)Gal
# Procedure, shortened: as §1
# [45] = target: GlcA(b1-6)Gal
# Procedure, shortened: as §1
binder,measurement,setting,value
B1,glycan array binding signal (z-score),[1],0.518
same,glycan array binding signal (z-score),[2],-0.217
same,glycan array binding signal (z-score),[3],-0.279
same,glycan array binding signal (z-score),[4],-0.052
same,glycan array binding signal (z-score),[5],-0.212
same,glycan array binding signal (z-score),[6],0.06
same,glycan array binding signal (z-score),[7],0.768
same,glycan array binding signal (z-score),[8],-0.117
same,glycan array binding signal (z-score),[9],0.134
same,glycan array binding signal (z-score),[10],-0.361
same,glycan array binding signal (z-score),[11],0.21
same,glycan array binding signal (z-score),[12],-0.168
same,glycan array binding signal (z-score),[13],-0.126
same,glycan array binding signal (z-score),[14],-0.347
same,glycan array binding signal (z-score),[15],-0.158
same,glycan array binding signal (z-score),[16],0.072
same,glycan array binding signal (z-score),[17],-0.095
same,glycan array binding signal (z-score),[18],-0.306
same,glycan array binding signal (z-score),[19],-0.27
same,glycan array binding signal (z-score),[20],-0.168
same,glycan array binding signal (z-score),[21],-0.362
same,glycan array binding signal (z-score),[22],-0.36
same,glycan array binding signal (z-score),[23],0.108
same,glycan array binding signal (z-score),[24],-0.304
same,glycan array binding signal (z-score),[25],-0.138
same,glycan array binding signal (z-score),[26],-0.384
same,glycan array binding signal (z-score),[27],-0.123
same,glycan array binding signal (z-score),[28],-0.056
same,glycan array binding signal (z-score),[29],0.251
same,glycan array binding signal (z-score),[30],-0.285
same,glycan array binding signal (z-score),[31],-0.153
same,glycan array binding signal (z-score),[32],-0.056
same,glycan array binding signal (z-score),[33],-0.209
same,glycan array binding signal (z-score),[34],-0.076
same,glycan array binding signal (z-score),[35],-0.394
same,glycan array binding signal (z-score),[36],-0.426
same,glycan array binding signal (z-score),[37],0.208
same,glycan array binding signal (z-score),[38],-0.35
same,glycan array binding signal (z-score),[39],-0.284
same,glycan array binding signal (z-score),[40],-0.389
same,glycan array binding signal (z-score),[41],-0.012
same,glycan array binding signal (z-score),[42],-0.201
same,glycan array binding signal (z-score),[43],-0.218
same,glycan array binding signal (z-score),[44],-0.166
same,glycan array binding signal (z-score),[45],1.28
